Results are given in words; binding and its absence hold for the method and conditions named. In cells and extracts the contact can be indirect. Some results given as binding are weak or reduced against the parent protein; the word gives no strength. For some assays here: Tags and fused reporters may be left off the sequences shown.
What was measured:
[1] = target: T1, Rbm15 of murine 6133 megakaryoblastic leukemic cells (mouse (endogenous in 6133)) (UniProt Q0VBL3); experiment: co-IP; immunoprecipitation with antisera against Setd1b or Rbm15 from whole cell extracts of murine 6133 megakaryoblastic leukemic cells, Western blotting
T1 sequence: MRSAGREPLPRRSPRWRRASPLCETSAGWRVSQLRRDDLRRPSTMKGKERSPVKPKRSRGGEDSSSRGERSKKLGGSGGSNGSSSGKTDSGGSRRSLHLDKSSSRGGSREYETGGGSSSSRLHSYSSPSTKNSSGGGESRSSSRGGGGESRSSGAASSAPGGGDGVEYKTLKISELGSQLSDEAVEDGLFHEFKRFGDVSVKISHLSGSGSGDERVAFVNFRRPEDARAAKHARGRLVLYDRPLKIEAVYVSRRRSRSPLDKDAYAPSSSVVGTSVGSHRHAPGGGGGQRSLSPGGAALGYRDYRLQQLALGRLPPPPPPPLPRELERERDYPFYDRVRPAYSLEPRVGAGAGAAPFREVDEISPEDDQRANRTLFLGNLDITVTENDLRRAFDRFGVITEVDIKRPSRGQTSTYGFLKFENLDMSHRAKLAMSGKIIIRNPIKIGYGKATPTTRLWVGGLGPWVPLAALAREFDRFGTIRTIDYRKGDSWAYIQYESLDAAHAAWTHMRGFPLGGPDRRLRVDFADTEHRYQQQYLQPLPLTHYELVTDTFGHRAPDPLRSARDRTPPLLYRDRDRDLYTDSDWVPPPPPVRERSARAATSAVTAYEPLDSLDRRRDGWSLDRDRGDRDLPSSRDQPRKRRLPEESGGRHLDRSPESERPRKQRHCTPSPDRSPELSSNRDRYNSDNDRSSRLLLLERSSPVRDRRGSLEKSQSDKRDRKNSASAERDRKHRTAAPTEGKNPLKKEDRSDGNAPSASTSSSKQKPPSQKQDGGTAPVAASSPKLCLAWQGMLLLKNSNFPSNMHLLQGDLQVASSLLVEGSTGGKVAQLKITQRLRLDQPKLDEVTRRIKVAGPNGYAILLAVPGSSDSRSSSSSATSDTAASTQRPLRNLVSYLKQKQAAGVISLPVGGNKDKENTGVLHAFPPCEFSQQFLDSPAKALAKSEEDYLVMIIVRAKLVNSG

Sequences of proteins named here, by UniProt entry; tags and fusion partners are left off. A change or cut given only in a name is not applied to a line headed by its entry. Residues count along the entry.
UniProt O15047: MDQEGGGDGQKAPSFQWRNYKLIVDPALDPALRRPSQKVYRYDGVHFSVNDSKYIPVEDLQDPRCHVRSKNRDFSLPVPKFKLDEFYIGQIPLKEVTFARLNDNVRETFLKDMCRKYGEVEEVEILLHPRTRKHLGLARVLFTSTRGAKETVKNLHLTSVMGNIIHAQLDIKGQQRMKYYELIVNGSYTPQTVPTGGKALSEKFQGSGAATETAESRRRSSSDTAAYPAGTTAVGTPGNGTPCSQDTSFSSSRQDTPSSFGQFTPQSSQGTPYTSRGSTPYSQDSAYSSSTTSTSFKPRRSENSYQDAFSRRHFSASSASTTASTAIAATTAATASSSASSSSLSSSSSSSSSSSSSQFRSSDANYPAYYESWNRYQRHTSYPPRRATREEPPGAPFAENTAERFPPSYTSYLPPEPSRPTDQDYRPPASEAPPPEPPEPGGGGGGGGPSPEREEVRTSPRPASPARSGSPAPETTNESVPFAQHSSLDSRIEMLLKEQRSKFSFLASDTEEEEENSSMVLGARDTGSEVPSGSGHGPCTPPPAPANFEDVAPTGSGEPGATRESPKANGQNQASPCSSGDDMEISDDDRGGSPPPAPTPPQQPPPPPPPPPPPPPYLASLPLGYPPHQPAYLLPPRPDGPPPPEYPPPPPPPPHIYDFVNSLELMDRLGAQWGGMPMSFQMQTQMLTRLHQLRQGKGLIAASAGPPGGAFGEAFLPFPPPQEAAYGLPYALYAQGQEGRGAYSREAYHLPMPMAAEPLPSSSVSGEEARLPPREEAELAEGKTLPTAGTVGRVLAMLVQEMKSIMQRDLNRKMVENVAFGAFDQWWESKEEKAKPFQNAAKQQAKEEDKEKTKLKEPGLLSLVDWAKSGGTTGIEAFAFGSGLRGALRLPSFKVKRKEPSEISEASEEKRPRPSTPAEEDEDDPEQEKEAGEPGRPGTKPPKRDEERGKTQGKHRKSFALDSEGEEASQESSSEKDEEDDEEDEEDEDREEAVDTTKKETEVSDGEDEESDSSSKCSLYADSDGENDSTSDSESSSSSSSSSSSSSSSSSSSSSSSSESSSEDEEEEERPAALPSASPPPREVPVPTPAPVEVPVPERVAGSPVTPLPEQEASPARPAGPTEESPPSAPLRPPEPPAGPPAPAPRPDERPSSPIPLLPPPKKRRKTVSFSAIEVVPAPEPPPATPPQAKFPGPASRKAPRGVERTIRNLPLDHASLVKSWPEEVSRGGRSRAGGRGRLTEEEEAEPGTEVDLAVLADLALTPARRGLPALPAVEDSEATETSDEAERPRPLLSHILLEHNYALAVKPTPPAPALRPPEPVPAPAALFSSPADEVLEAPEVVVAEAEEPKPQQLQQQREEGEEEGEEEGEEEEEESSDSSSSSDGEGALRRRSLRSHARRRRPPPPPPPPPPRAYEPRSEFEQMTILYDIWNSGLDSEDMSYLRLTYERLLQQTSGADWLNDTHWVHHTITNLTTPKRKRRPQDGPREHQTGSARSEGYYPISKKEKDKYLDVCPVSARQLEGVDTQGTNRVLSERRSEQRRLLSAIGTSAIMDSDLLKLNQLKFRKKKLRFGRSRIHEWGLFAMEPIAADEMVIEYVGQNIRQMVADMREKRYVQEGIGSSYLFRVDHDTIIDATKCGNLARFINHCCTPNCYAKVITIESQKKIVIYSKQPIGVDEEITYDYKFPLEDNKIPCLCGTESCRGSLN
FLAG-Setd1a (aa 247–1408): residues 247-1408 of O15047
UniProt Q9CWW7: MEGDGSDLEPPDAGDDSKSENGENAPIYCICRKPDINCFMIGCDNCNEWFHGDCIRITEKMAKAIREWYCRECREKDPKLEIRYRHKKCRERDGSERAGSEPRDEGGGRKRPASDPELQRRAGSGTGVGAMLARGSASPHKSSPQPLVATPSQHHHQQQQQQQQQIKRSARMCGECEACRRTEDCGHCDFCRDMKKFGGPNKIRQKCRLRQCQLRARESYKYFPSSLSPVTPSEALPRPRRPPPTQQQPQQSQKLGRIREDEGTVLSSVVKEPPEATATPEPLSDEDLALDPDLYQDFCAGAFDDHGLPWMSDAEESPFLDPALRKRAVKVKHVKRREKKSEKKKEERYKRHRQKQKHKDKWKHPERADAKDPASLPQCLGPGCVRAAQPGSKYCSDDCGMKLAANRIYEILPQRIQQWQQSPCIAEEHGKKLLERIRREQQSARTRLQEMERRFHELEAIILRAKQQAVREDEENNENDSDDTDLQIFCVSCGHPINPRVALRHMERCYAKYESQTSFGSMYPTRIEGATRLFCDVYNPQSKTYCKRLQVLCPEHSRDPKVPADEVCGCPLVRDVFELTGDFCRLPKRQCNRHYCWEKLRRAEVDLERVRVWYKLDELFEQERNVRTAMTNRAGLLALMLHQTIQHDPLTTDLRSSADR
UniProt Q9P0U4: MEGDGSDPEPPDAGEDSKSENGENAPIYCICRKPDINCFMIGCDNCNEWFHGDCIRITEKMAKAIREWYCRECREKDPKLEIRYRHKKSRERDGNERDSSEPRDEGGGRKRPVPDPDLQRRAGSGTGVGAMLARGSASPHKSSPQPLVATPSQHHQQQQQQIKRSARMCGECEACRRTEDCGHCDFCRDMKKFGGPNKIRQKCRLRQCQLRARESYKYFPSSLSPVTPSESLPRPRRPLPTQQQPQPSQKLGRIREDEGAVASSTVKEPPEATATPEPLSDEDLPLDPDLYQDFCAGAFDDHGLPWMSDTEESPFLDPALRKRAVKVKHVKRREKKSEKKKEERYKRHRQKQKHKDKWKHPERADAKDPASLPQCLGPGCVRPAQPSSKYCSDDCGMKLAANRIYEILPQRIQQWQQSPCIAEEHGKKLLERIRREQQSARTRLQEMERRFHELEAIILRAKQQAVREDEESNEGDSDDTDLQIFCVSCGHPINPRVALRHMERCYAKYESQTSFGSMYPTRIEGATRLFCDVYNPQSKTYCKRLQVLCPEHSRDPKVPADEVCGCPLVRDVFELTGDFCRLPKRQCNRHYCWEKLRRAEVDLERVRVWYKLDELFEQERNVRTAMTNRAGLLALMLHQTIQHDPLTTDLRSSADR
UniProt Q6UXN9: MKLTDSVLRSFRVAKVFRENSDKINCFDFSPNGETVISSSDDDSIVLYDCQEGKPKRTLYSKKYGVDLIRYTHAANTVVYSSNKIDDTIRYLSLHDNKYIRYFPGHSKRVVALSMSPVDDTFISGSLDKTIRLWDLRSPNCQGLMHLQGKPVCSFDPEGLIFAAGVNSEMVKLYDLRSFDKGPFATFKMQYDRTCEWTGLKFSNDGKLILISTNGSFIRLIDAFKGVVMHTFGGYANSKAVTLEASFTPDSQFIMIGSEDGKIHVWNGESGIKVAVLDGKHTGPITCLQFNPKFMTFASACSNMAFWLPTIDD

[2] = target: T2, endogenous Rbm15 (human (endogenous in HEK293)) (UniProt Q96T37); experiment: co-IP; immunoprecipitation with antisera against Setd1b or Rbm15 from nuclear extracts of HEK293 cells (endogenous proteins), Western blotting
T2 sequence: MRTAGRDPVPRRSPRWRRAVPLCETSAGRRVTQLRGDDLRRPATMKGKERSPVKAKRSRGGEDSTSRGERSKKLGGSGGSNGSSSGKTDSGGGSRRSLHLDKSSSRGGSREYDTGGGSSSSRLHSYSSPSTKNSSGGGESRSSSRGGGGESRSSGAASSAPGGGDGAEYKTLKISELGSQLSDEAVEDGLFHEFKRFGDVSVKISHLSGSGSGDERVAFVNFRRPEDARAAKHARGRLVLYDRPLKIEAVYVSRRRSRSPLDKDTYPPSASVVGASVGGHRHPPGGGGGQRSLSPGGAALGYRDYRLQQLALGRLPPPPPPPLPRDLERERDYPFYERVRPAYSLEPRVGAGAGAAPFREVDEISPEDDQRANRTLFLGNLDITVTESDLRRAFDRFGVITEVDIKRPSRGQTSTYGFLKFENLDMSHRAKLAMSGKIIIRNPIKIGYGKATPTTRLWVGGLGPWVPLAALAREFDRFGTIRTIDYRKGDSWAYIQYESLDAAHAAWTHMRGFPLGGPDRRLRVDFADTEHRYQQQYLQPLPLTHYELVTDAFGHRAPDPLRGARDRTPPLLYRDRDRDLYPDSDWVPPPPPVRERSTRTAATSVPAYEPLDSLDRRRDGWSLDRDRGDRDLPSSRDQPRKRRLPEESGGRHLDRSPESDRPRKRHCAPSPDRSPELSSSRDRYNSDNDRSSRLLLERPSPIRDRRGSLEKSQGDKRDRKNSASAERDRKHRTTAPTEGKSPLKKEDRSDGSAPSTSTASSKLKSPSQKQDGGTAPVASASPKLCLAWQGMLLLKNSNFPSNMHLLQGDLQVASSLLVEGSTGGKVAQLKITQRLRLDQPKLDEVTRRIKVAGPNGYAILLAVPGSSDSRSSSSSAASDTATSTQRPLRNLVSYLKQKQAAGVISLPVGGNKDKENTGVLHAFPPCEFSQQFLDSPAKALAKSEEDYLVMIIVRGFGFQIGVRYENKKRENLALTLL

[3] = target: endogenous Setd1b (human (endogenous in HEK293)) (UniProt Q9UPS6); experiment: as above
[4] = target: T3, FLAG-Rbm15 fragment aa 782 to 977 (human) (UniProt Q96T37); experiment: co-IP; FLAG immunoprecipitation from whole cell extracts of transiently transfected HEK293 cells, Western blotting for endogenous partners
T3 sequence: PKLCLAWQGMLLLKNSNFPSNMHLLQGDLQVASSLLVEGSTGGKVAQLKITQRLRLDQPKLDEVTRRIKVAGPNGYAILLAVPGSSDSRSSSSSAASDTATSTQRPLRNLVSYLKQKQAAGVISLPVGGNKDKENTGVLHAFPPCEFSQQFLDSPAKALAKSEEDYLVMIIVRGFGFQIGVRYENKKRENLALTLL

FLAG-Rbm15 (human) [5] = target: T4, FLAG-Rbm15 (human) (UniProt Q96T37); experiment: co-IP; FLAG immunoprecipitation from whole cell extracts of T-REx HEK293 lines induced with 1 µg/ml doxycycline for three days, in the presence or absence of RNase A (50 ug/ml, 15 min, 37°C)
T4 sequence: T2 sequence

[6] = target: T5, FLAG-Setd1b (aa 225–1671) (human) (UniProt Q9UPS6); experiment: co-IP; FLAG immunoprecipitation from nuclear extracts of transiently transfected HEK293 cells, Western blotting for endogenous partners
T5 sequence: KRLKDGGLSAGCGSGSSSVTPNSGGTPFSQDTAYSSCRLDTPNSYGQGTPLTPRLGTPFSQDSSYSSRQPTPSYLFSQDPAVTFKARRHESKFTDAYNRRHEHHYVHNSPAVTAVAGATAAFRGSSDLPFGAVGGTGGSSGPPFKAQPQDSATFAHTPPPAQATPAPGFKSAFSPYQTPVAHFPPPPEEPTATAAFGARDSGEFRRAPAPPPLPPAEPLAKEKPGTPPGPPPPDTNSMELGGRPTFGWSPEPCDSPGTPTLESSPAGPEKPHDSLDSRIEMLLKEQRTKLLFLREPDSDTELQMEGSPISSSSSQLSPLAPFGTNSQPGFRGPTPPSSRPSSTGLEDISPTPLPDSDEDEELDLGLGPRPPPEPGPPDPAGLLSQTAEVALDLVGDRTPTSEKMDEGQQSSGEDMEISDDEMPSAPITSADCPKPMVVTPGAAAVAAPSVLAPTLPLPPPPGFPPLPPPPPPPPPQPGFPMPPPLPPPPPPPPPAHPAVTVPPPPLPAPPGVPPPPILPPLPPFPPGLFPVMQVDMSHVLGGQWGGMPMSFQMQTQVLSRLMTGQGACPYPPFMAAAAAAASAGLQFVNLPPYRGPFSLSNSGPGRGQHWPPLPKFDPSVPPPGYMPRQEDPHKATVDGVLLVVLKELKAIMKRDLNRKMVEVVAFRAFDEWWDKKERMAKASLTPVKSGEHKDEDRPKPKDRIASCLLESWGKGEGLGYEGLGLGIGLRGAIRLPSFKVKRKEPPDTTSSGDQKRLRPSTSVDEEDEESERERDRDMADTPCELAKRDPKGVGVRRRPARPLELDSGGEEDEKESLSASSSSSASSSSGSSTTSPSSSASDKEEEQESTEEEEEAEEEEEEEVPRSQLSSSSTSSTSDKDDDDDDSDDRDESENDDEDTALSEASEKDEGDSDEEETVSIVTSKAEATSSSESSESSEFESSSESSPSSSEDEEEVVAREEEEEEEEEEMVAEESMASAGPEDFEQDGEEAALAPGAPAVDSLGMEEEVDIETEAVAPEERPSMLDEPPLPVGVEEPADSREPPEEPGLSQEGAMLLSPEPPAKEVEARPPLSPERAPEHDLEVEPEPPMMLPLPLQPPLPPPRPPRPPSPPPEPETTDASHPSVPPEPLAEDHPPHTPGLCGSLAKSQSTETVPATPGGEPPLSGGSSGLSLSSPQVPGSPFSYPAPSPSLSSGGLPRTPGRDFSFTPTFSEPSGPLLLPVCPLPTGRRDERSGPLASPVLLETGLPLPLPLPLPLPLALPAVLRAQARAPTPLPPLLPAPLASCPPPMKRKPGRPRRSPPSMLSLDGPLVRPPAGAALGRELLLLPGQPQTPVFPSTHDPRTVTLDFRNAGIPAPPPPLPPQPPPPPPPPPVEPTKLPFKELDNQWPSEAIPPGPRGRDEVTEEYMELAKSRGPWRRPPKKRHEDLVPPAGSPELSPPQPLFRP

[7] = target: FLAG-Setd1a (aa 247–1408) (human) (UniProt O15047); experiment: as above
FLAG-Rbm15 (human) [8] = target: T4, FLAG-Rbm15 (human); experiment: as above
[9] = target: T6, FLAG-Setd1b fragment (1–867 aa) (human) (UniProt Q9UPS6); experiment: co-IP; FLAG immunoprecipitation from whole cell extracts of transiently transfected HEK293 cells, Western blotting for endogenous partners
T6 sequence: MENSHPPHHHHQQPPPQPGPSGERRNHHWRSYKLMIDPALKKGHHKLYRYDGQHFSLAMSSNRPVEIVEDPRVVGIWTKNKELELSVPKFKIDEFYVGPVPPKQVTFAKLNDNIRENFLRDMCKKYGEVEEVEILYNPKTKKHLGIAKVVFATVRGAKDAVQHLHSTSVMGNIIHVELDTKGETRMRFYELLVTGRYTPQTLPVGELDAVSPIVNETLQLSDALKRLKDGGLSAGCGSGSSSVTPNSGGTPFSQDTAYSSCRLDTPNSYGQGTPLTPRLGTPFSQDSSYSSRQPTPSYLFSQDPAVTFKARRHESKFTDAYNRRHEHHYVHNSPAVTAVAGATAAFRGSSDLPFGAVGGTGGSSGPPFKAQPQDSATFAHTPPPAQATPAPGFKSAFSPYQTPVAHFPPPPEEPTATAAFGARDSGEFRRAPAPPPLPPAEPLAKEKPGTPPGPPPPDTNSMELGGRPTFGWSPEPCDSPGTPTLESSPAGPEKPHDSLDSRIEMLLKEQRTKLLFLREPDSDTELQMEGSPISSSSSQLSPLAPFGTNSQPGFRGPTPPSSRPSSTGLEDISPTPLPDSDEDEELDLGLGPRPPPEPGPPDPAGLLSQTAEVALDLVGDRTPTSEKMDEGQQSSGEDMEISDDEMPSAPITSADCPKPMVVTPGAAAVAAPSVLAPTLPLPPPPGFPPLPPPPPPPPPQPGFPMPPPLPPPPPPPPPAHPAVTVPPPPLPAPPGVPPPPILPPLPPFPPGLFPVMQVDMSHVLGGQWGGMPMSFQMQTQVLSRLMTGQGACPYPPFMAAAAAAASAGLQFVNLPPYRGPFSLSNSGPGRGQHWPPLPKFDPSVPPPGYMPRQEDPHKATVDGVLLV

| Substance | binding [1] | binding [2] | binding [3] | binding [4] | binding (FLAG-Rbm15 (human) [5]) | binding [6] | binding [7] | binding (FLAG-Rbm15 (human) [8]) | binding [9] |
| --- | --- | --- | --- | --- | --- | --- | --- | --- | --- |
| Cfp1 of murine 6133 megakaryoblastic leukemic cells (from UniProt Q9CWW7 1-660) | binds | – | – | – | – | – | – | – | – |
| endogenous Cfp1 (from UniProt Q9P0U4 1-656) | – | binds | binds | binds | binds | no binding | no binding | binds | – |
| endogenous Setd1a (from UniProt O15047 1-1707) | – | no binding | no binding | – | – | – | – | no binding | – |
| endogenous Wdr82 (from UniProt Q6UXN9 1-313) | – | – | – | binds | binds | no binding | no binding | binds | binds |

Reference: publication PMC3424240
